The list shows a part of the results. Single values are uncertain, as repeats are few or missing.
Assays:
Test in all cases: cell count relative to DMSO control; melanoma cells; higher = more viable cells
Settings in all cases: library dose: standard library concentration; 72 h
A101D = tested on: A101D
A2058 = tested on: A2058
A375 = tested on: A375
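Further: cells treated in 1,536-well plates, then fixed and DAPI-stained, with nuclei counted from automated high-throughput microscope images.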

SMILES	cell count (A101D)	cell count (A2058)	cell count (A375)
CC1(C)CCC(c2ccc(Cl)cc2)=C(CN2CCN(c3ccc(C(=O)NS(=O)(=O)c4ccc(N[C@H](CCN5CCOCC5)CSc5ccccc5)c(S(=O)(=O)C(F)(F)F)c4)cc3)CC2)C1 + Cc1ccc(Nc2nccc(N(C)c3ccc4c(C)n(C)nc4c3)n2)cc1S(N)(=O)=O [Pazopanib] (first compound 2 µM, partner dose 2 µM)	50.9%	95%	63.7%
O=C(/C=C/c1cccnc1)NCCCCC1CCN(C(=O)c2ccccc2)CC1 + CN(NC(=O)CC(=O)NN(C)C(=S)c1ccccc1)C(=S)c1ccccc1 [STA4783] (first compound 0.05 µM, partner dose 0.03 µM)	72.3%	6.42%	123%
Cc1ccc(Nc2nccc(N(C)c3ccc4c(C)n(C)nc4c3)n2)cc1S(N)(=O)=O [Pazopanib] + C=C(c1ccc(C(=O)O)cc1)c1cc2c(cc1C)C(C)(C)CCC2(C)C [Bexarotene] (first compound 2 µM, partner dose 10 µM)	94.4%	105%	99.4%
CC1(C)CCC(c2ccc(Cl)cc2)=C(CN2CCN(c3ccc(C(=O)NS(=O)(=O)c4ccc(N[C@H](CCN5CCOCC5)CSc5ccccc5)c(S(=O)(=O)C(F)(F)F)c4)cc3)CC2)C1 + Cn1cncc1[C@@](N)(c1ccc(Cl)cc1)c1ccc2c(c1)c(-c1cccc(Cl)c1)cc(=O)n2C [tipifarnib] (first compound 2 µM, partner dose 0.05 µM)	38.2%	85.5%	63.9%
Cc1ccc(Nc2nccc(N(C)c3ccc4c(C)n(C)nc4c3)n2)cc1S(N)(=O)=O [Pazopanib] + Cn1cnc2c(F)c(Nc3ccc(Br)cc3Cl)c(C(=O)NOCCO)cc21 [selumetinib] (first compound 2 µM, partner dose 0.075 µM)	76.1%	87.2%	100%
O=C(/C=C/c1cccnc1)NCCCCC1CCN(C(=O)c2ccccc2)CC1 + O=C(O)[C@@H]1[O][Sb](=[O])([O][Sb]2(=[O])[O][C@H]([C@H](O)CO)[C@H](O)[C@H](C(=O)O)[O]2)[O][C@H]([C@H](O)CO)[C@@H]1O [stibogluconate] (first compound 0.05 µM, partner dose 10 µM)	81.2%	139%	131%
Cc1ccc(Nc2nccc(N(C)c3ccc4c(C)n(C)nc4c3)n2)cc1S(N)(=O)=O [Pazopanib] + C[C@]1(O)C[C@@H](c2nc(-c3ccc4ccc(-c5ccccc5)nc4c3)c3c(N)nccn32)C1 [OSI906] (first compound 2 µM, partner dose 2 µM)	69.9%	92.6%	91.8%
O=C(/C=C/c1cccnc1)NCCCCC1CCN(C(=O)c2ccccc2)CC1 + CN1CCN(c2ccc3nc(-c4c(N)c5c(F)cccc5[nH]c4=O)[nH]c3c2)CC1 [Dovitinib] (first compound 0.05 µM, partner dose 0.5 µM)	51%	34.6%	84.4%
O=C(/C=C/c1cccnc1)NCCCCC1CCN(C(=O)c2ccccc2)CC1 + CN(C)S(=O)(=O)c1ccc2c(c1)/C(=C/c1cc3c([nH]1)CCCC3)C(=O)N2 [SU6656] (first compound 0.05 µM, partner dose 2 µM)	77.3%	122%	155%
Cc1ccc(Nc2nccc(N(C)c3ccc4c(C)n(C)nc4c3)n2)cc1S(N)(=O)=O [Pazopanib] + O=C(CCCCCCC(=O)Nc1ccccc1)NO [vorinostat] (first compound 2 µM, partner dose 0.4 µM)	74.3%	94.3%	121%
O=C(/C=C/c1cccnc1)NCCCCC1CCN(C(=O)c2ccccc2)CC1 + OCc1c[nH]c2ccccc12 [Indole-3-carbinol] (first compound 0.05 µM, partner dose 4 µM)	83.3%	123%	90.8%
Cc1ccc(Nc2nccc(N(C)c3ccc4c(C)n(C)nc4c3)n2)cc1S(N)(=O)=O [Pazopanib] + CCCS(=O)(=O)Nc1ccc(F)c(C(=O)c2c[nH]c3ncc(Cl)cc23)c1F [PLX4720] (first compound 2 µM, partner dose 0.4 µM)	79%	117%	108%
Cc1ccc(Nc2nccc(N(C)c3ccc4c(C)n(C)nc4c3)n2)cc1S(N)(=O)=O [Pazopanib] + Cn1cncc1[C@@](N)(c1ccc(Cl)cc1)c1ccc2c(c1)c(-c1cccc(Cl)c1)cc(=O)n2C [tipifarnib] (first compound 2 µM, partner dose 0.05 µM)	64.7%	81.4%	89.7%
Cc1ccc(Nc2nccc(N(C)c3ccc4c(C)n(C)nc4c3)n2)cc1S(N)(=O)=O [Pazopanib] + CCN(CC)CCNC(=O)c1c(C)[nH]c(/C=C2\C(=O)Nc3ccc(F)cc32)c1C [sunitinib] (first compound 2 µM, partner dose 2 µM)	68.5%	82.4%	104%
Cc1ccc(Nc2nccc(N(C)c3ccc4c(C)n(C)nc4c3)n2)cc1S(N)(=O)=O [Pazopanib] + Nc1ccn([C@@H]2O[C@H](CO)[C@@H](O)C2(F)F)c(=O)n1 [gemcitabine] (first compound 2 µM, partner dose 0.002 µM)	89.7%	63.2%	74.3%
Cc1ccc(Nc2nccc(N(C)c3ccc4c(C)n(C)nc4c3)n2)cc1S(N)(=O)=O [Pazopanib] + CO[C@@H]1[C@H](N(C)C(=O)c2ccccc2)C[C@H]2O[C@]1(C)n1c3ccccc3c3c4c(c5c6ccccc6n2c5c31)C(=O)NC4 [Midostaurin] (first compound 2 µM, partner dose 0.4 µM)	68.9%	65.8%	76.3%
CC1(C)CCC(c2ccc(Cl)cc2)=C(CN2CCN(c3ccc(C(=O)NS(=O)(=O)c4ccc(N[C@H](CCN5CCOCC5)CSc5ccccc5)c(S(=O)(=O)C(F)(F)F)c4)cc3)CC2)C1 + Nc1ccn([C@@H]2O[C@H](CO)[C@@H](O)C2(F)F)c(=O)n1 [gemcitabine] (first compound 2 µM, partner dose 0.002 µM)	26.3%	39.4%	42.4%
Cc1ccc(Nc2nccc(N(C)c3ccc4c(C)n(C)nc4c3)n2)cc1S(N)(=O)=O [Pazopanib] + OCc1c[nH]c2ccccc12 [Indole-3-carbinol] (first compound 2 µM, partner dose 4 µM)	100%	87.9%	91.4%
CC1(C)CCC(c2ccc(Cl)cc2)=C(CN2CCN(c3ccc(C(=O)NS(=O)(=O)c4ccc(N[C@H](CCN5CCOCC5)CSc5ccccc5)c(S(=O)(=O)C(F)(F)F)c4)cc3)CC2)C1 + C#Cc1cccc(Nc2ncnc3cc(OCCOC)c(OCCOC)cc23)c1 [erlotinib] (first compound 2 µM, partner dose 4 µM)	20.4%	52.7%	43.1%
CC1(C)CCC(c2ccc(Cl)cc2)=C(CN2CCN(c3ccc(C(=O)NS(=O)(=O)c4ccc(N[C@H](CCN5CCOCC5)CSc5ccccc5)c(S(=O)(=O)C(F)(F)F)c4)cc3)CC2)C1 + O=C(O)c1ccc(-c2c[nH]c3ncc(-c4ccccc4)cc23)cc1C1CCCC1 [GSK650394] (first compound 2 µM, partner dose 0.8 µM)	34.2%	77.5%	64.6%
Cc1ccc(Nc2nccc(N(C)c3ccc4c(C)n(C)nc4c3)n2)cc1S(N)(=O)=O [Pazopanib] + CC1(C)NC(=O)N(c2ccc([N+](=O)[O-])c(C(F)(F)F)c2)C1=O [nilutamide] (first compound 2 µM, partner dose 5 µM)	92.3%	107%	93.5%
Cc1ccc(Nc2nccc(N(C)c3ccc4c(C)n(C)nc4c3)n2)cc1S(N)(=O)=O [Pazopanib] + CC(C)CCN1c2nc(Nc3cc(F)c(O)c(F)c3)ncc2N(C)C(=O)C1C [BID1870] (first compound 2 µM, partner dose 1 µM)	52%	98.8%	89.5%
CC1(C)CCC(c2ccc(Cl)cc2)=C(CN2CCN(c3ccc(C(=O)NS(=O)(=O)c4ccc(N[C@H](CCN5CCOCC5)CSc5ccccc5)c(S(=O)(=O)C(F)(F)F)c4)cc3)CC2)C1 + Cn1sc(=O)n(Cc2ccccc2)c1=O [TDZD-8] (first compound 2 µM, partner dose 2 µM)	58.8%	77.7%	63.2%
Cc1ccc(Nc2nccc(N(C)c3ccc4c(C)n(C)nc4c3)n2)cc1S(N)(=O)=O [Pazopanib] + CC(=O)c1c(C)c2cnc(Nc3ccc(N4CCNCC4)cn3)nc2n(C2CCCC2)c1=O [palbociclib] (first compound 2 µM, partner dose 0.2 µM)	64.1%	98.7%	74.7%
O=C(/C=C/c1cccnc1)NCCCCC1CCN(C(=O)c2ccccc2)CC1 + COc1cc(Nc2ncc(F)c(Nc3ccc4c(n3)NC(=O)C(C)(C)O4)n2)cc(OC)c1OC [Tamatinib] (first compound 0.05 µM, partner dose 2 µM)	30.5%	99.2%	122%
Cc1ccc(Nc2nccc(N(C)c3ccc4c(C)n(C)nc4c3)n2)cc1S(N)(=O)=O [Pazopanib] + CC(C)(C)c1cnc(CSc2cnc(NC(=O)C3CCNCC3)s2)o1 [SNS-032] (first compound 2 µM, partner dose 0.05 µM)	58.8%	92.8%	65.8%
